Source: the BET-seq Pho4 binding data (Le et al. 2018)
The list shows a part of the results. The energies were worked out here from pooled read counts, against the library average; single values are noisy.

target: T1, Pho4 (S. cerevisiae) (UniProt P07270); test: relative binding free energy (BET-seq); higher = weaker binding; conditions: reference: library average
T1 sequence: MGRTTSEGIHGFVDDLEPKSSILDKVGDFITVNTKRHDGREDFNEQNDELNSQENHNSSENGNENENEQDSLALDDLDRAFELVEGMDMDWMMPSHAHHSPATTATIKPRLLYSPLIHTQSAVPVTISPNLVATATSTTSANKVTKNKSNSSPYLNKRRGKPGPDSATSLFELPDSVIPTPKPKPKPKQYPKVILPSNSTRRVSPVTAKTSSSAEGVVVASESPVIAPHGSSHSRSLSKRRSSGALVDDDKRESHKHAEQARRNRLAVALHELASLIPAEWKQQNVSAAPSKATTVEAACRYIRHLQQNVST

| Sequence | relative binding free energy |
| --- | --- |
| ATTGACACGTGGAGGA | 0.01 kcal/mol |
| GTAGTCACGTGGTCTA | 0.06 kcal/mol |
| GATACCACGTGGGGGT | -0.16 kcal/mol |
| ACGAACACGTGGGTGT | -0.16 kcal/mol |
| TCGGTCACGTGAGGCG | 0.21 kcal/mol |
| AGGGTCACGTGGATAC | 0.18 kcal/mol |
| GTAGCCACGTGGAAGT | 0.13 kcal/mol |
| CGTAGCACGTGGGTGC | -0.25 kcal/mol |
| TGTACCACGTGGATGG | -0.18 kcal/mol |
| GTGTGCACGTGCGTTG | -0.03 kcal/mol |
| AGTTGCACGTGTGTCG | 0.08 kcal/mol |
| GTTTTCACGTGGTCAA | 0.18 kcal/mol |
| TCTATCACGTGCTTGG | 0.11 kcal/mol |
| AGGCTCACGTGGGTGC | 0.04 kcal/mol |
| TAAGGCACGTGTGTGA | -0.15 kcal/mol |
| TAATTCACGTGAACGT | 0.33 kcal/mol |
| TTTACCACGTGTTGTA | -0.22 kcal/mol |
| ATTTTCACGTGATAAG | 0.32 kcal/mol |
| TTATACACGTGGGTGA | -0.04 kcal/mol |
| TGTGACACGTGTGTAG | 0 kcal/mol |
| GGTGTCACGTGTAAAA | 0.13 kcal/mol |
| CTGAGCACGTGTGAGT | -0.09 kcal/mol |
| TAGTTCACGTGAGAGA | 0.46 kcal/mol |
| TGCTGCACGTGTGTTG | 0.04 kcal/mol |
| GGGGCCACGTGATTGA | 0.05 kcal/mol |

| Sequence | relative binding free energy |
| --- | --- |
| TAGTGCACGTGCGGCA | -0.14 kcal/mol |
| TAGGTCACGTGTATTA | 0.04 kcal/mol |
| AGATACACGTGAGTGT | 0.05 kcal/mol |
| TCTGGCACGTGATTAG | -0.03 kcal/mol |
| GACGGCACGTGCGAGG | 0.04 kcal/mol |
| TGGCTCACGTGTCGTA | 0.22 kcal/mol |
| GGTGGCACGTGGCAGT | -0.11 kcal/mol |
| ACGGCCACGTGTGTGG | 0.01 kcal/mol |
| TTGAACACGTGGTGAA | 0 kcal/mol |
| TGGAACACGTGTGTGG | 0.09 kcal/mol |
| TGTTTCACGTGTACTG | 0.09 kcal/mol |
| AATTCCACGTGTTTTG | 0.19 kcal/mol |
| ATAGCCACGTGGTGTT | -0.26 kcal/mol |
| TCAAGCACGTGATGGT | -0.08 kcal/mol |
| TGTTACACGTGAGGTA | 0.11 kcal/mol |
| GGCGTCACGTGGGTCT | -0.08 kcal/mol |
| GTGTTCACGTGGAAGG | 0.35 kcal/mol |
| GTGTGCACGTGATGGA | 0.18 kcal/mol |
| TAGCTCACGTGTGGTG | 0.29 kcal/mol |
| GATAGCACGTGTGGGT | 0.04 kcal/mol |
| AATTGCACGTGGTGTC | -0.11 kcal/mol |
| CAGGCCACGTGGTGTG | -0.25 kcal/mol |
| GTATGCACGTGATGCG | -0.12 kcal/mol |
| GTTTACACGTGGAGTT | 0.24 kcal/mol |
| GTCTGCACGTGATAGG | 0.19 kcal/mol |

| Sequence | relative binding free energy |
| --- | --- |
| GTTTTCACGTGAAATA | 0.31 kcal/mol |
| TAGGTCACGTGTAATT | 0.17 kcal/mol |
| TTCGGCACGTGGGTTC | -0.1 kcal/mol |
| CAATACACGTGTGGGG | 0.19 kcal/mol |
| TTGGGCACGTGGTTCG | -0.1 kcal/mol |
| TTACTCACGTGGTTAG | 0.01 kcal/mol |
| GGTTACACGTGCATGA | 0.24 kcal/mol |
| TCGTGCACGTGTATAG | 0.02 kcal/mol |
| ATTGCCACGTGGGGTG | -0.26 kcal/mol |
| TTAATCACGTGAGGTC | 0.32 kcal/mol |
| AGAAACACGTGGGAGT | -0.07 kcal/mol |
| AGTTACACGTGGGAGG | 0 kcal/mol |
| CGTGGCACGTGTAGAA | 0.03 kcal/mol |
| TGGATCACGTGTTTAA | 0.16 kcal/mol |
| AGTGTCACGTGCTTTG | -0.04 kcal/mol |
| TTAATCACGTGAGTAG | 0.29 kcal/mol |
| ATATGCACGTGTAGCT | -0.05 kcal/mol |
| GAGTCCACGTGATTTG | 0.32 kcal/mol |
| TGTTGCACGTGATTGT | 0.15 kcal/mol |
| ATCTTCACGTGCGTGG | 0.07 kcal/mol |
| TCGTTCACGTGGGTGA | 0.22 kcal/mol |
| GTGGTCACGTGCTTGT | 0.14 kcal/mol |
| CGAGTCACGTGTGGTC | 0.18 kcal/mol |
